# Reference: PubChem BioAssay AID504845 (National Center for Advancing Translational Sciences (NCATS), 2011)
# Where “and” joins values, the source holds several entries; their conditions need not be identical. Equal values may be shown once. The campaign covered roughly 390,000 compounds. About 150 (0.038%) were called active. About 3% were inconclusive and are not listed. Calls follow the shape of the dose curve; as a rule, active = well fitted inhibition curve with a large enough effect; inconclusive = small, poorly fitted or top-dose-only effect; inactive = no such curve, though single readings can be large or run the other way. Only a part is listed here, and it is no random draw. Some structures have more than one record in an assay (separate samples or runs), and their calls can disagree.
# Target: Regulator of G-protein signaling 4 (Homo sapiens) (UniProt P49798)
# Assay: Inhibitors of Regulator of G Protein Signaling (RGS) 4: qHTS; also: nearly all actives have a fitted effect of over 75% in size
# Settings: Transcreener GDP fluorescence polarization, RGS4-accelerated GTP hydrolysis; series mostly up to 114 µM; activity change, negative = inhibition: at the top concentration
# Excerpt: G-protein-coupled receptors (GPCRs) are well-established targets for drug discovery and development. Members of the "regulator of G-protein signaling" (RGS)-protein superfamily have recently emerged as critical modulators of specific GPCR signaling pathways. […] Combining specific RGS domain inhibitors with existing GPCR agonists should potentiate cellular responses and could also increase the specificity of action of existing therapeutics. Small molecule modulators of RGS domain activity should also have clinical utility in inhibiting or potentiating the actions of endogenous GPCR agonists. In particular, the diversity of RGS proteins with highly localized and dynamically regulated distributions in the human brain makes this family of proteins attractive targets for pharmacotherapy of central nervous system (CNS) disorders such as Parkinson's disease, schizophrenia, and anxiety.
# This assay was used to screen the NIH Molecular Libraries Small Molecule Repository (MLSMR) in order to identify a small molecule that inhibits RGS4.
# NIH Chemical Genomics Center [NCGC]
# NIH Molecular Libraries Probe Centers Network [MLPCN]
# Assay Submitter (PI): David Siderovski, University of North Carolina Chapel Hill (School of Medicine)
# Two microliters of 500nM (2x working concentration) is dispensed into black medium-binding solid-bottom Kalypsys plates. Then with the Kalypsys pintool 23nl of control and compounds are transferred; the control compound is […] CCG-4986 (working concentration). After a 10 minute incubation at room temperature 2ul of antibody is added with the Kalypsys dispenser; (-)RGS4/Transcreener GDP solution in columns 3 and 4 which consisted of 10nM (2x working concentration) Alexa633, 20uM GTP, and 20 ug/ml GDP antibody and (+)RGS4/Transcreener GDP solution in columns 1,2, and 5 to 48 which consists of 900nM RGS4 (2x working concentration), 10nM Alexa633, 20 ug/ml GDP antibody. The plate is centrifuged at 1000 RPM for 15 seconds to remove any possible bubbles and then incubated for 5 minutes at ambient room temperature. An initial fluorescent polarization read (620 nm/688 nm) is performed on the Envision before the plate is incubated for 90 minutes at 30 deg C at a relative humidity of 80%. The plate is once more centrifuged at 1000 RPM for 15 seconds and another Envision fluorescent polarization (620 nm/688 nm) read is carried out.
# % is scaled to controls: 0 for no effect and ±100 for the full control effect; potency is read from the fitted curve at half-maximal effect.
# Chain of UniProt P49798 (P49798 whole entry, looked up): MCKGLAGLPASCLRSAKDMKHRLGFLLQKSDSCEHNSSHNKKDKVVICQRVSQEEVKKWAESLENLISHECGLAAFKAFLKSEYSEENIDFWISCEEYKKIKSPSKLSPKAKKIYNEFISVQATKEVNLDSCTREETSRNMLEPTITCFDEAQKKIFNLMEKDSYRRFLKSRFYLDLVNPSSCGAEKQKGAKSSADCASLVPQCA
SMILES,"activity change, negative = inhibition",Potency
Cc1ccc(/C=C2/C(=O)NC(=O)N(CCc3ccc(F)cc3)C2=O)s1,inactive: -48%,–
CCCCCCC(C)(C)c1ccc([C@@H]2C[C@H](O)CC[C@H]2CCCO)c(O)c1,inactive: 14.6%,–
C=CCN1CC[C@@]23c4c5ccc(O)c4O[C@H]2/C(=N\N=C2/CC[C@@]4(O)[C@H]6Cc7ccc(O)c8c7[C@@]4(CCN6CC=C)[C@@H]2O8)CC[C@]3(O)[C@@H]1C5,inactive: -36.6% [at 56.9 µM],–
NC(N)=Nc1ccc2[nH]c3c(c2c1)C[C@@]1(O)[C@H]2Cc4ccc(O)c5c4[C@@]1(CCN2CC1CC1)[C@H]3O5,–,active: 23.8 µM
CCC1(C2=NCCN2)Cc2ccccc2O1 (stereo not given),–,inactive
C=C(C)[C@@H]1CC[C@]2(C(=O)O)CC[C@]3(C)C(CCC4[C@@]5(C)CC[C@H](O)C(C)(C)C5CC[C@]43C)C12 (stereo not given in full),inactive: -10.9%,–
CCNC(=O)C1OC(n2cnc3c(N)ncnc32)C(O)C1O (stereo not given),inactive: -18.7%,–
C[N+]1(C)CCc2cc3c(cc2[C@H]1[C@@H]1OC(=O)c2c1ccc1c2OCO1)OCO3,–,inactive
O=c1[nH]oc2c1CCNC2,–,inactive
CC[C@@H](CO)NC(=O)[C@@H]1C=C2c3cccc4c3c(cn4C)C[C@H]2N(C)C1,–,inactive and active: 18.9 µM
CC(=O)N1CC[N+](C)(C)CC1,inactive: 58.5% [at 56.9 µM],–
CC1=C(C(=O)Nc2ccccc2)S(=O)(=O)CCO1,inactive: 55.2%,–
c1ccc2c(c1)OCC(C1=NCCN1)O2 (stereo not given),–,inactive
c1ccc(C2CNCc3ccccc32)cc1 (stereo not given),inactive: 70% [at 56.9 µM],–
CN1CCC2(CC1)C(C#N)=C(N)NC(S)=C2C#N,inactive: -50.5%,–
CN1CCC[C@H]1c1cccnc1,–,inactive
C[C@]1(C(=O)O)CCC[C@]2(C)c3cc(O)ccc3CC[C@@H]12,–,active: 1.06 µM
CC(=O)OC1C([N+]2(C)CCCCC2)C[C@H]2C3CC[C@H]4C[C@H](OC(C)=O)C([N+]5(C)CCCCC5)CC4(C)[C@H]3CCC12C (stereo not given in full),inactive: -8.35%,–
C[C@]12CCC3C(CC[C@H]4C[C@H](O)CC[C@]34C)[C@@H]1CC[C@@H]2C(=O)CO (stereo not given in full),inactive: 310% [at 56.9 µM],–
CC1=NN(c2ccccc2)C(=O)C1/C=C1/C(=O)NC(=O)N(c2cc(C)cc(C)c2)C1=O (stereo not given),inactive: -47.2%,–
CC(C)C[C@H]1C(=O)N2CCC[C@H]2[C@]2(O)O[C@](NC(=O)C3C=C4c5cccc6[nH]c(Br)c(c56)C[C@H]4N(C)C3)(C(C)C)C(=O)N12 (stereo not given in full),inactive: -5.22%,–
CCCCC(C)C(OC(=O)CC(CC(=O)O)C(=O)O)C(CC(C)CC(O)CCCCC(O)CC(O)C(C)N)OC(=O)CC(CC(=O)O)C(=O)O (stereo not given),inactive: -11.3%,–
CC(C)CC1C(=O)N2CCC[C@H]2[C@]2(O)O[C@](NC(=O)[C@@H]3C=C4c5cccc6[nH]c(Br)c(c56)C[C@H]4N(C)C3)(C(C)C)C(=O)N12 (stereo not given in full),inactive: 11.1%,–

SMILES,"activity change, negative = inhibition",Potency
CCN1C[C@@]2(COC)C3[C@@H](OC)C4[C@@H]1C3([C@@H]1C[C@]3(O)[C@H](OC(=O)c5ccccc5)[C@@H]1[C@]4(OC(C)=O)[C@@H](O)[C@@H]3OC)[C@H](OC)C[C@H]2O,inactive: 5.7% [at 56.9 µM],–
CC(C)(O)C1O[C@H]2CC[C@@]3(C)[C@@](O)(CC[C@H]4Cc5c([nH]c6ccccc56)[C@@]43C)C2=CC1=O (stereo not given in full),inactive: 210% [at 56.9 µM],–
CN1C[C@H](CNC(=O)OCc2ccccc2)C[C@@H]2c3cccc4c3c(cn4C)C[C@H]21,inactive: -3.14%,–
CC(=O)[C@H]1CCC2C3CC[C@H]4C[C@@H](O)CC[C@]4(C)C3CC[C@@]21C (stereo not given in full),inactive: -22.3%,–
CN1CC[C@@]2(c3cccc(O)c3)Cc3nc4ccccc4cc3C[C@H]2C1,inactive: 0% [at 56.9 µM],–
CC(C)[C@H]1C(=O)N2CCC[C@H]2[C@]2(O)O[C@](NC(=O)[C@@H]3C=C4c5cccc6[nH]cc(c56)C[C@H]4N(C)C3)(C(C)C)C(=O)N12,inactive: -34.7%,–
N#CC(C#N)=Cc1ccc(O)c(O)c1,inactive: -41.1%,–
CC(C)NCC(O)COc1cccc2[nH]ccc12 (stereo not given),inactive: -11.1% [at 56.9 µM],–
NC(=O)CI,–,active: 18.9 µM
CC(C)C[C@H](NC(=O)[C@H](Cc1ccccc1)NC(=O)CNC(=O)[C@H](CO)NC(=O)[C@@H](N)Cc1ccc(O)cc1)C(=O)N[C@H](C(=O)O)[C@H](C)O,inactive: 490% [at 56.9 µM],–
CC(C)C[C@H]1C(=O)N2CCCC2[C@]2(O)O[C@](NC(=O)[C@@H]3C=C4c5cccc6[nH]cc(c56)CC4N(C)C3)(C(C)C)C(=O)N12 (stereo not given in full),inactive: -38.7%,–
COc1ccc2[nH]c3c(c2c1)CCNC3,inactive: -18.3%,–
NCC(O)c1ccc(O)cc1 (stereo not given),–,inactive
CC(=O)C1CCC2C3CCC4CC(O)CCC4(C)C3CCC12C (stereo not given),inactive: 11.3%,–
C[N+]1(C)C2CCC1CC(OC(=O)C(CO)c1ccccc1)C2 (stereo not given),–,inactive
CC(=O)O[C@H]1C[C@@H]2CC[C@@H]3[C@H](CC[C@@]4(C)[C@H]3C[C@H]([N+]3(C)CCCCC3)[C@@H]4OC(C)=O)[C@@]2(C)C[C@@H]1[N+]1(C)CCCCC1,–,inactive
CC12NC(Cc3ccccc31)c1ccccc12 (stereo not given),inactive: 38.3% [at 56.9 µM],–
CC(=O)[C@H]1[C@H](C#N)C[C@H]2[C@@H]3CC=C4C[C@@H](O)CC[C@]4(C)[C@H]3CC[C@@]21C,inactive: 0.698%,–
CN1CCc2cc(O)cc3c2C1Cc1ccc(O)c(O)c1-3 (stereo not given),inactive: -140% [at 56.9 µM],–
CN1CCc2cc(O)cc3c2[C@H]1Cc1ccc(O)c(O)c1-3,inactive: -52.9%,–
Clc1cncc(N2CCNCC2)n1,–,active: 4.23 µM
NCC(CC(=O)O)c1ccc(Cl)cc1 (stereo not given),–,inactive
